Data published in article PMC4336329 (PLoS ONE, 2015).
Screen size: about 310,000 compounds; about 14,000 (4.5%) showed an effect of 50% or more. The effect is printed as a negative number. Some of the results follow.

biological target: human ether-à-go-go-related gene (hERG) potassium channel (human, UniProt Q12809); assay: primary screen, population patch clamp on CHO cells stably expressing hERG
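Further: peak tail current of the secondary pulse compared with the same well before compound.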

Chain of human ether-à-go-go-related gene (hERG) potassium channel (Q12809 whole entry, looked up): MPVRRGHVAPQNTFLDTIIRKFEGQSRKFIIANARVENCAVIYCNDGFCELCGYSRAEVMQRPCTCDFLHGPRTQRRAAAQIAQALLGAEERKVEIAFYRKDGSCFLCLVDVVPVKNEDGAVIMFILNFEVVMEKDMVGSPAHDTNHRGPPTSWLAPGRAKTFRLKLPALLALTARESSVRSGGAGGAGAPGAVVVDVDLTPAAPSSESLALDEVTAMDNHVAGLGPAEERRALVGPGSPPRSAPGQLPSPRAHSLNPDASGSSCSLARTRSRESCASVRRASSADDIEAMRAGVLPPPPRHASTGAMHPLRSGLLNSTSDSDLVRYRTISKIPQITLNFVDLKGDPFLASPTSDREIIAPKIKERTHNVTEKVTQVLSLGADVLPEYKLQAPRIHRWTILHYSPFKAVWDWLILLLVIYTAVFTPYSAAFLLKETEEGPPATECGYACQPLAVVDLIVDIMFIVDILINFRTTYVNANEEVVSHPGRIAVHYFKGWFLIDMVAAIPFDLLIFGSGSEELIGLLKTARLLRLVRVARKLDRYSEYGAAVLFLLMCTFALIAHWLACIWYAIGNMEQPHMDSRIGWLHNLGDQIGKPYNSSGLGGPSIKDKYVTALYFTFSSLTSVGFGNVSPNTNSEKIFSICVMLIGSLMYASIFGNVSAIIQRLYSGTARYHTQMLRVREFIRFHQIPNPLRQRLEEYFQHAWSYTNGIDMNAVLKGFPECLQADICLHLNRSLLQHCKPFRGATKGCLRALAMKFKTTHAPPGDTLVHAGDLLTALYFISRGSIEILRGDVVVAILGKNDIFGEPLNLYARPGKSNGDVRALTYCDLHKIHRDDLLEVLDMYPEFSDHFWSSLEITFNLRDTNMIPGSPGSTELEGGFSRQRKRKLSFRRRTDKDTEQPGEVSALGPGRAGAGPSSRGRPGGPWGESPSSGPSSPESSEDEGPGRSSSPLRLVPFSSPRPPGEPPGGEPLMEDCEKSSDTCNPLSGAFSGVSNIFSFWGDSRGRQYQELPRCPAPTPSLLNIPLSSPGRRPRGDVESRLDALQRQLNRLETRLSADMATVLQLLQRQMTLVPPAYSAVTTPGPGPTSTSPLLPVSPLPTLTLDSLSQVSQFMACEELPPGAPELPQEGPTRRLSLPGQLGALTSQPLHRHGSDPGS

Row | SMILES | hERG current change (%, negative = inhibition) at 10uM [%]
1 | CCn1nnnc1SCC(=O)c1ccc(NC(C)=O)cc1 | 0.37
2 | Cc1ccc(C)c(Cn2nnc3c(=O)[nH]c(C4CCCN(S(=O)(=O)Cc5ccccc5)C4)nc32)c1 (centres unmarked) | 17
3 | CNC(=S)NN(c1ccccc1)c1ccccc1 | 2.18
4 | CCOC(=O)C1=C(C)OC2(O)c3ccccc3C(=O)C12O (centres unmarked) | 11.1
5 | O=C(Cn1c(=O)c(=O)n(Cc2ccccc2)c2ccc(Cl)cc21)NCC1CCCO1 (centres unmarked) | 31.4
6 | COc1ccc(OC)c(NC(=O)CSC2=C(C#N)C(c3ccco3)C3=C(CCCC3=O)N2)c1 (centres unmarked) | -18.5
7 | Cc1cc(NC(=O)C2CC=CCC2C(=O)O)ccc1NC(=O)c1ccccc1 (centres unmarked) | 9.88
8 | CCn1c(SCC(=O)N2CCCCCC2)nc2ccccc2c1=O | -10.4
9 | COCCCNC(=O)CN(CCc1ccccc1)S(=O)(=O)c1ccccc1 | -1.75
10 | CCCC(C(=O)O)N1C(=O)/C(=C2\C(=O)N(C)c3ccccc32)SC1=S (centres unmarked) | -2.58
11 | CC1(C)CC(NCc2ccccc2)CCO1.Cl (centres unmarked) | 5.1
12 | O=C(O)c1ccccc1C(=O)NCc1cccnc1 | -32.8
13 | COc1ccc(NC(=O)c2ccccc2NC(=O)c2cccs2)cc1 | 22.4
14 | CCCCN(C(=S)SC)C1CCS(=O)(=O)C1 (centres unmarked) | -14.9
15 | CCN(CC)CC(=O)Nc1ccc(/C(C)=N/NC2=NCCN2)cc1 | -5.05
16 | CC1CCCN(S(=O)(=O)c2ccc(NC(=O)C3CCN(C(=O)c4ccco4)CC3)cc2)C1 (centres unmarked) | -40.9
17 | CC1CCCN(C(=O)COC(=O)C2CCN(S(=O)(=O)c3ccc(Cl)c(C(F)(F)F)c3)CC2)C1 (centres unmarked) | -1.8
18 | COc1cccc(C(=O)Nc2c[nH]c(=O)[nH]c2=O)c1 | 6.49
19 | CCOc1cccc2cc(C(=O)NCCC3=CCCCC3)c(=O)oc12 | 10.1
20 | CCc1ccc(N2C(=O)C3C4CCC(C4=C(C)C)C3C2=O)cc1 (centres unmarked) | -3.05
21 | COc1ccc(C2Nc3ccccc3C(=O)N2Cc2ccccc2)cc1OC (centres unmarked) | 7.78
22 | Cc1ccc(-c2ccc(SCC(=O)NC3CCCC3)nn2)cc1 | 15.4

Row | SMILES | hERG current change (%, negative = inhibition) at 10uM [%]
23 | O=C(CC(=O)Nc1ccc(Br)cc1)Nc1ccc(Br)cc1 | 27.1
24 | CC(=O)N1N=C(c2ccc(C)cc2)OC1c1ccc(Br)cc1 (centres unmarked) | 27.8
25 | CCOC(=O)C1CCCN(C(=O)c2ccc([N+](=O)[O-])cc2)C1 (centres unmarked) | -14.4
26 | COCCCNC(=O)CCCCCNS(=O)(=O)c1ccc(Br)cc1 | -21.4
27 | COc1ccccc1-n1c(SCC(=O)Nc2cc(C)on2)nc2c(c1=O)SCC2 | -7.17
28 | CC(=O)c1ccc(S(=O)(=O)N2CCN(c3nc4c(C)c(C)ccc4cc3C#N)CC2)cc1 | 11.3
29 | COc1ccc(NC(=O)COc2ccc(C)cc2)c([N+](=O)[O-])c1 | 7
30 | COc1ccccc1NC(=O)CN1C(=O)CCS(=O)(=O)c2ccccc21 | 1.01
31 | CCOC(=O)Cc1csc(NC(=O)COc2ccc(N(C)S(=O)(=O)c3ccc(C)cc3)cc2)n1 | -23.8
32 | O=C(O)c1cnc(-c2ccccc2)nc1Sc1ccccc1Cl | 4.88
33 | CC(=O)N1CCCc2cc(S(=O)(=O)N(CC(C)C)CC(C)C)ccc21 | -50.4
34 | Cc1ccc(-c2noc(-c3ccccc3C(=O)NCc3ccco3)n2)cc1 | -6.1
35 | O=C(CCCO)c1ccc2c(c1)OCCO2 | 16.8
36 | Cc1cc(C)cc(NC(=O)/C=C/c2ccc([N+](=O)[O-])s2)c1 | 4.35
37 | CCn1c(=O)n(CC)c2cc(N3CCCC3)c(NC(=O)c3ccccc3Br)cc21 | -8.24
38 | COc1ccccc1NS(=O)(=O)c1ccc(C(=O)N2CC(C)OC(C)C2)cc1 (centres unmarked) | 5.53
39 | O=C(c1ccccc1F)N1CCN(c2ccccc2)CC1 | 0.71
40 | CCOC(=O)/C(C(N)=NCCCO)=C(/O)c1ccccc1 | -9.17
41 | CCOc1ccc(C(C)NC(=O)c2ccc3c(c2)NC(=O)C(C)S3)cc1OCC (centres unmarked) | 1.73
42 | CC(C)C(C(=O)NC(C)(C)C)N(CCN1CCOCC1)C(=O)CNS(=O)(=O)c1ccccc1 (centres unmarked) | 0.875
43 | Cc1ccc(-c2nc(CS(=O)CC(=O)NC(C)CCc3ccccc3)c(C)o2)cc1 (centres unmarked) | -46.2
44 | O=C(N/N=C/c1ccco1)c1ccc2nc[nH]c2c1 | 20.9
